Laboratory results taken from the supplement of paper PMC10338343.
± gives the standard deviation. The list shows a part of the results, in another mix than the full data.

These sequences were tested on MIWI (PIWIL1) piRISC loaded with piRNA #1 (30 nt) (assay: pre-steady-state target cleavage rate (min^-1); MIWI and MILI are mouse PIWI proteins and EfPiwi is from a freshwater sponge; tags in brackets are library labels; higher = faster piRNA-guided slicing of the target). Settings: guide: piRNA #1 5'p-UGAGGUAGUAGGUUGUAUAGUAUCCAGAGG; auxiliary factor: 500 nM mouse GTSF1.
Outline: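 For Cleave-'n-Seq, a transcribed, DNA-blocked target RNA library […] met 1 nM active affinity-purified piRISC with one synthetic guide at 33 °C for 0–8 or 0–960 min in HEPES–potassium acetate buffer, with or without 500 nM GTSF1 partner protein. Uncleaved targets were sequenced and normalised to depth and weakly complementary targets, with three trials pooled and k3 capped at 0.0001 min^-1. A burst-and-steady-state fit supplied the pre-steady-state cleavage rate.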
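Note: 1 nM active piRISC with 0.1 nM target library at 33 °C single turnover.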

| Sequence | pre-steady-state target cleavage rate |
| --- | --- |
| GGAGUGGAUACUAUAGAACCUACUACCUGA | 0.104 ± 0.022 |
| GCUCUGGAUCACUAUACAACCUACUACCUCA | 1.05 ± 0.091 |
| GGAGAGGAUACAAUACAAGCUACUACCUCA | 0.505 ± 0.037 |
| GGAGACCUAACUAUACAACCUACUACGCUCA | 0.916 ± 0.1 |
| GGAGACCAUACUUUACAACCUACUACCUGA | 0.566 ± 0.075 |
| GCUCUGGAUACUCUACAACCUACUACCUCA | 1.57 ± 0.081 |
| CCUCUGAAUACUAUACAACCUACUACCUCA | 2.09 ± 0.13 |
| GGUCUGGAUACUAUACAACCUACUAACCUCA | 0.939 ± 0.073 |
| CGUCUGCAUACUAUACAACCUACUACCUCA | 1.76 ± 0.099 |
| GGAGACCUUACUAUAAACCUACUACCUCA | 0.00519 ± 0.0021 |
| GGAGACCUUACAUUACAACCUACUACCUCA | 0.0567 ± 0.0099 |
| GGAGACGAUACUAUACAACCUAACUACCUCA | 0.0273 ± 0.0052 |
| GGAGAGGAUACUAUACAACCUUCUACCUGA | 0.0813 ± 0.015 |
| GGAGUGGACACUAUACAACCUACUACCUCA | 1.67 ± 0.082 |
| GCUCUGGAUACAUACAACCUACUACCUCA | 1.28 ± 0.094 |
| CCUCUGGAUAGUAUAGAACCUACUACCUCA | 0.37 ± 0.048 |
| GGACUGGAUACUAUACAUGCUACUACCUCA | 0.716 ± 0.061 |
| GGACUGGAUACUAUACAUCCAACUACCUCA | 0.0649 ± 0.0092 |
| GGAGACCUAUGAUUACAACCUCACUACCUCA | 0.00801 ± 0.0022 |
| CCUCUGCAUACUAUACAACCUAGUACCUCA | 0.453 ± 0.047 |

| Sequence | pre-steady-state target cleavage rate |
| --- | --- |
| GGAGAGGAUACUAUACAACCUACCUACCUCA | 1.05 ± 0.059 |
| GGACUGGAUACUAUACAACCUACUACCAGA | 0.0491 ± 0.012 |
| GGAGAGGAUACUAUACAACCAUGUACCUCA | 0.0042 ± 0.002 |
| GGAGACGAUACUUUAGAACCUACUACCUCA | 0.996 ± 0.052 |
| GGACUGCAUACUAUACAACCUACUAGCUCA | 0.0482 ± 0.0093 |
| GGAGAGGAUACUAUUCUACCUACUACCUCA | 0.861 ± 0.061 |
| CCUGUGGAUACUAUACUACCUACUACCUCA | 1.51 ± 0.096 |
| GGACUGGAUACUAAACAACCUUCUACCUCA | 0.641 ± 0.043 |
| GGAGACCUAACUAUACAACCUACAACCACA | 0.196 ± 0.055 |
| GGAGACCUAAGUAUAGAACCUACUACCUCA | 0.0385 ± 0.0096 |
| GGAGUGGAAACUAUACAACCUACUACCACA | 0.509 ± 0.045 |
| CCUCUGGAUGACUAUACAACCUACUACCUCA | 1.21 ± 0.088 |
| CCUCUGGAUACAAUACAACCUACUUCCUCA | 0.567 ± 0.045 |
| GGACUGGAUACUUUACAACCAACUACCUCA | 0.0795 ± 0.0081 |
| GGAGACCUUAGUAUACAACCUACAACCUCA | 0.0975 ± 0.018 |
| GGUCUGGAUACUAUACAACCUACGACCUCA | 0.462 ± 0.041 |
| GGUCUGGAUACUAUUCAACCAACUACCUCA | 0.0882 ± 0.0072 |
| GGAGACCUUACUAUAGAACCAACUACCUCA | 0.0271 ± 0.003 |
| GCUCUGGAUACUAUACUAGCUACUACCUCA | 0.797 ± 0.06 |
| GGAGAGGAUACAAUACUACCUACUACCUCA | 0.74 ± 0.052 |
